Measured values as given in PMC6919601, “Identification of Plasmodium dipeptidyl aminopeptidase allosteric inhibitors by high throughput screening” (PLoS ONE, 2019).
Hit rate of the full screen: of about 110,000 compounds, about 230 (0.21%) showed an effect of 50% or more. The list shows a part of the results.

What follows are compounds tested against DPAP1 (Plasmodium falciparum, UniProt Q8IIJ9) (assay: primary screen, percent inhibition; read by cleavage of a fluorogenic dipeptide substrate; higher = more effect of the substance).
DPAP1, sequence (Q8IIJ9 whole entry, looked up): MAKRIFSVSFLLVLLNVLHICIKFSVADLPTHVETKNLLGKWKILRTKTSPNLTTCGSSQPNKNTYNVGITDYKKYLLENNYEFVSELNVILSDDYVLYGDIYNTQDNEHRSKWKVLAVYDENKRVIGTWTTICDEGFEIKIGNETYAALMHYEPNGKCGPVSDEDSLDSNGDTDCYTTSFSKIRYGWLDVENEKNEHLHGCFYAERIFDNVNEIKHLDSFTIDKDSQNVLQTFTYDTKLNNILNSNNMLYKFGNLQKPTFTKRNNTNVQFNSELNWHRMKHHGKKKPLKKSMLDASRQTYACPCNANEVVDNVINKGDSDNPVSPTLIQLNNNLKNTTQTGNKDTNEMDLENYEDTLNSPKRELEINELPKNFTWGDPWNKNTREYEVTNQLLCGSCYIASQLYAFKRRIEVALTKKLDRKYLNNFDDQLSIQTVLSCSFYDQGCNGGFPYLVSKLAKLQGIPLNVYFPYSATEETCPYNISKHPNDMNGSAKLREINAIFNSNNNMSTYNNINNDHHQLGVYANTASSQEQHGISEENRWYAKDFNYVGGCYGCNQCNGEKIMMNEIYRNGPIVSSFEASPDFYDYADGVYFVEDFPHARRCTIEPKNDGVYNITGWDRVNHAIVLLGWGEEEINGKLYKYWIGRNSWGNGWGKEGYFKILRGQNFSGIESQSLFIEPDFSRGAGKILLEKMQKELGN
Set-up: species or system P. falciparum D10 trophozoite lysates; single well
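Note: 30 min substrate incubation versus DMSO and 10 µM JCP410 controls.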

Compound	% Inhibition @ 10 uM [%]
CC(=O)Nc1c(Cl)c(Cl)c(NC(C)=O)c2[nH]nnc12	1.7
COc1ccc(-c2cc(C(=O)NCCCN3CCOCC3)no2)cc1	0.723
CCCCSc1nc2cc(OCC)ccc2[nH]1	-1.36
Cc1cccc(C(=N)NOC(=O)c2c(-c3ccccc3Cl)noc2C)c1	-1.33
O=C(Nc1cccc(Cl)c1)c1cccc(NC(=O)C(C(F)(F)F)C(F)(F)F)c1	1.88
COc1ccccc1C(=O)NC1CCS(=O)(=O)C1 (centres unmarked)	2.03
COc1ccc([C@@H]2C(C#N)=C(N)S[C@H]2C(=O)c2ccccc2)cc1	2.45
CC1(C)CC(=O)C(C(C2=C(O)CC(C)(C)CC2=O)c2ccc3ccccc3c2)C(=O)C1 (centres unmarked)	4.67
O=C1NC(=O)/C(=C\c2c[nH]c3ccccc23)N1	-0.546
N#CC1=C(N)C(C#N)(C#N)C(c2cccc3ccccc23)C2CCCC=C12 (centres unmarked)	-4.24
COc1ccccc1-c1n[nH]c(N)n1	-3.04
CCOCCO/C(O)=C1\C(C)=NC2=C(C(=O)CC(c3cccs3)C2)C1c1ccccc1OCC (centres unmarked)	6.59
O=C(O)c1cccc(S(=O)(=O)N2CCCCCC2)c1	1.7
CC(C)(C)c1ccc(C(=O)N2CCN(C(c3ccccc3)c3ccccc3)CC2)cc1	2.78
CCc1ccc(CN2CCN(Cc3cccc(F)c3)CC2)cc1	3.79
Cc1ccc(OCC(=O)N(Cc2nc(-c3ccccc3)no2)C(C)C)c(Br)c1	1.38
CC(OCCN1CCCC1)(c1ccc(F)cc1)c1ccc(F)cc1	-0.988
C=CCn1c(SC(C)C)nc2c1c(=O)n(C)c(=O)n2C	-6.36
CCOC(=O)c1c(NC(=O)CSc2nnc3scc(-c4ccccc4)n23)sc(C)c1C	4.08
CCCCCc1cc(C(=O)O)[nH]c1-c1ccccc1	0.518
C=CCSc1nc2sc3c(c2c(=O)n1CC)CC(C)(C)OC3	-3.26
O=C(NC(NC(=O)c1ccccc1)c1ccccc1)c1ccccc1	8.23
Cn1c(=O)c(C(=O)Nc2ccc(Cl)cn2)c(O)c2ccccc21	-1.98
COc1ccc(CCNC(=O)CCCn2c(=O)c3cccn3c3cccnc32)c(OC)c1OC	-4.82
CC1=C(C(=O)OCc2ccccc2)C(c2cccs2)C2=C(O)CC(c3cccs3)CC2=N1 (centres unmarked)	2.25

Compound	% Inhibition @ 10 uM [%]
CCOc1cc(C(=O)N(Cc2nc(-c3ccc(OC)cc3)no2)C(C)C)cc(OCC)c1OCC	2.78
CCC(C)NC(=O)CSc1nc2ccccc2c2nc3ccccc3n12 (centres unmarked)	-4.19
CC(C)C[C@H](NC(=O)c1cccc(O)n1)C(=O)NCC#N	-0.778
COc1ccc(OC)c(NC2CCCCC2OC)c1 (centres unmarked)	3.48
CS(=O)(=O)N(CC(=O)Nc1ccc(S(=O)(=O)N2CCCCC2)cc1)c1ccc(F)cc1	-6.22
COc1cc(CO)cc(Br)c1OCc1ccc(C(=O)O)cc1	-2.22
COc1ccc(OC)c(C2C3=C(O)CC(C)(C)CC3=NC(C)=C2C(=O)Nc2ccc(F)cc2)c1 (centres unmarked)	-8.35
CCOC(=O)c1ccc(-c2ccc(/C=C(\C#N)c3nn(-c4ccccc4)c(N)c3C#N)o2)cc1	-0.995
C#CCOc1ccc(/C=C2/C(=O)N(c3nc(C)c(C(=O)OCC)s3)N=C2C)cc1Cl	2.56
COc1ccccc1CNC(=O)C(NS(=O)(=O)c1ccc2nc(C)sc2c1)C(C)C (centres unmarked)	1.62
COc1ccc(CCN2CC34C=CC(O3)C(C(=O)NCc3ccc(C)cc3)C4C2=O)cc1OC (centres unmarked)	2.59
Cc1cc(OCC(=O)Nc2ccccn2)cc(C)c1Cl	-7.93
COc1ccc(NC(=O)CN(c2ccccc2C)S(=O)(=O)c2ccc(C)cc2)cc1OC	4.67
Cc1nc2nc(CNC(=O)OC(C)(C)C)nn2c(C)c1CCC(=O)NCCc1ccc(Cl)cc1	4.4
CCOC(=O)c1c(-c2ccccc2)oc2cc(Br)c(OS(C)(=O)=O)cc12	2.85
COc1ccc(C(=O)Nc2sc3c(c2C(N)=O)CCC3)c(OC)c1	2.54
CC1CCC(NC(=O)CC/N=c2/c(N3CCCC3)c(O)c2=O)CC1 (centres unmarked)	1.68
CCOc1ccc(C(=O)NCCC(C)C)cc1	-3.01
O=C1NC(=O)/C(=C\c2ccc(-c3ccccc3)o2)N1	0.145
O=C(Cn1ncc2ccccc21)NC1CCCc2ccccc21 (centres unmarked)	1.68
COc1ccc(C2CC(=O)NC3=C2C(=O)CC(c2ccccc2Cl)C3)cc1 (centres unmarked)	-1
CC(Cc1ccc(F)cc1)N1CCC(C(N)=O)CC1 (centres unmarked)	-7.18
COc1ccc(C(=O)NCc2ccccn2)cc1	3.53
CC(C)N(Cc1ccccc1)c1c(-c2ccccc2)c(=O)c1=O	-3.47
Cc1ccc(CNC(=O)c2ccc(Cn3c(SCc4ccccc4)nc4cccnc43)cc2)o1	4.79
